The supplement of paper PMC7826260
Some of the results follow. Each Rep nickase domain was tested in vitro on the same pool of single strands for 1 h at 37 °C with 3 µM enzyme; only the middle of the 90-letter strands is printed. Uncut reads are compared with the no-enzyme pool on a log2 scale; uncut sequences lie near 0, cut ones below; no hit call is given. Counts are relative to all reads, so uncut sequences can rise above 0 when many others are cut.

Key:
Assay in all cases: uncleaved DNA left, log2 of reads against the no-enzyme library (log2 ratio); higher = less cleavage (more negative = more Rep cleavage of the k-mer); sequences stand for … in CTCGTCCG…ACCGGAGA
[1] = tested on: T1, Rep nickase domain of Muscovy duck circovirus
T1 sequence (residues 1-111 of Rep, tag left off): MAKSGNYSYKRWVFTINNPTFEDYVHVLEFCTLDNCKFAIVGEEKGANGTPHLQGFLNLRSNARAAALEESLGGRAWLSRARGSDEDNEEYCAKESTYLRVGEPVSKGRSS
Experimental: (§1)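 A pool of 90-nt single-stranded DNAs with seven random bases just before the constant AC of the nick site (name = the seven bases) was cut by 3 µM recombinant His6-SUMO-tagged Rep nickase domain (300 nM DNA, 50 mM HEPES pH 8.0, 50 mM NaCl, 1 mM MnCl2, 1 h, 37 °C, three replicates). Uncut DNA was amplified and sequenced.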

[2] = tested on: T2, Rep nickase domain of banana bunchy top virus
T2 sequence (residues 1-94 of Rep, tag left off): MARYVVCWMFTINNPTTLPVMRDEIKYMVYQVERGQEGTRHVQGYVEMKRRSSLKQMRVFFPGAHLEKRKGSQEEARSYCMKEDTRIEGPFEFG
Experimental: as §1

[3] = tested on: T3, Rep nickase domain of cabbage leaf curl virus
T3 sequence (residues 1-116 of Rep, tag left off): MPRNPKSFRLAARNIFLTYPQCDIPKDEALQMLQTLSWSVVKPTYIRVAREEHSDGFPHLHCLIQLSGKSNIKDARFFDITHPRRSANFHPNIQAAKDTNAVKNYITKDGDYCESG
Experimental: as §1

[4] = tested on: T4, Rep nickase domain of chickpea chlorotic dwarf virus
T4 sequence (residues 1-124 of Rep, tag left off): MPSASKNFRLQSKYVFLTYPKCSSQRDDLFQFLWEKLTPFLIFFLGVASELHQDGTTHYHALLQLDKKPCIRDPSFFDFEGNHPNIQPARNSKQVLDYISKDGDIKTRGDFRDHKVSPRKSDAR
Experimental: as §1

[5] = tested on: T5, Rep nickase domain of faba bean necrotic yellows virus
T5 sequence (residues 1-98 of Rep, tag left off): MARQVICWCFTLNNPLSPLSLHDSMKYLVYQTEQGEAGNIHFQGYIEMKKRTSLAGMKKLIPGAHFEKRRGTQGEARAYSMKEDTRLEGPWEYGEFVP
Experimental: as §1

[6] = tested on: T6, Rep nickase domain of maize striate mosaic virus
T6 sequence (residues 1-117 of Rep, tag left off): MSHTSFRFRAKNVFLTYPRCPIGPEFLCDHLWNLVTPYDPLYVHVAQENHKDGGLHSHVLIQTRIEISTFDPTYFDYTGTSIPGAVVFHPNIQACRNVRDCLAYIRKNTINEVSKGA
Experimental: as §1

[7] = tested on: T7, Rep nickase domain of porcine circovirus 2
T7 sequence (residues 2-116 of Rep, tag left off): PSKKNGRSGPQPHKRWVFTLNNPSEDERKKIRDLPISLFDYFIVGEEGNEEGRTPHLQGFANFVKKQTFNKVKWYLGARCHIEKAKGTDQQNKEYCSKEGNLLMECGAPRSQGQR
Experimental: as §1

[8] = tested on: T8, Rep nickase domain of tomato golden mosaic virus
T8 sequence (residues 1-124 of Rep, tag left off): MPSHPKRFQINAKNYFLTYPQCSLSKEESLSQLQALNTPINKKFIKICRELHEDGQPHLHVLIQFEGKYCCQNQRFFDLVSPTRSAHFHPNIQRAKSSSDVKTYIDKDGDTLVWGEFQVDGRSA
Experimental: as §1

[9] = tested on: T9, Rep nickase domain of tomato yellow leaf curl virus
T9 sequence (residues 1-136 of Rep, tag left off): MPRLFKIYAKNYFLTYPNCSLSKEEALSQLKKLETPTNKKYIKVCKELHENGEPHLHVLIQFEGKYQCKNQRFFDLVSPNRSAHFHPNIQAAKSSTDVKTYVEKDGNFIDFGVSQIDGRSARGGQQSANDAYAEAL
Experimental: as §1

[10] = tested on: T10, Rep nickase domain of wheat dwarf virus
T10 sequence (residues 1-137 of Rep, tag left off): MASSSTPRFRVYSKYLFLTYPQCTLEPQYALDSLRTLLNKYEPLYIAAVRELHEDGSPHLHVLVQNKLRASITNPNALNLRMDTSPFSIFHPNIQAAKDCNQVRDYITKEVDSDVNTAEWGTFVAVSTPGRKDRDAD
Experimental: as §1

Row | Sequence | uncleaved DNA left (log2) [1] | uncleaved DNA left (log2) [2] | uncleaved DNA left (log2) [3] | uncleaved DNA left (log2) [4] | uncleaved DNA left (log2) [5] | uncleaved DNA left (log2) [6] | uncleaved DNA left (log2) [7] | uncleaved DNA left (log2) [8] | uncleaved DNA left (log2) [9] | uncleaved DNA left (log2) [10]
1 | TGTCATT | -0.0308 | 0.184 | 0.39 | -0.163 | -0.2 | 1.06 | -2.06 | -0.144 | 0.256 | 0.135
2 | TGCGGTA | -0.144 | 0.000518 | -0.412 | -0.664 | -0.206 | -0.883 | -0.367 | 0.0726 | 0.0951 | -0.0401
3 | GATGAAC | 0.122 | 0.0545 | 0.215 | 0.747 | 0.0127 | 1.05 | 0.0741 | 0.0739 | 0.0416 | 0.0385
4 | GCATTTT | -2.73 | -0.104 | -0.298 | -1.64 | -0.151 | -0.198 | -2.96 | -0.13 | 0.0623 | -0.165
5 | AAAGTCA | -0.00202 | -0.0385 | -0.256 | -1.67 | -0.11 | -0.685 | -0.0635 | -0.0702 | 0.00143 | -0.106
6 | TGCTGGT | -0.0535 | -0.0959 | 0.121 | 0.0253 | 0.0848 | 0.248 | -0.617 | 0.00951 | -0.05 | -0.00256
7 | CGTGCGA | -0.0488 | -0.0179 | -0.676 | -0.365 | 0.00306 | -0.804 | 0.0657 | -0.00645 | 0.0344 | -0.114
8 | CTGAGCA | 0.0762 | 0.0686 | -0.199 | -0.379 | 0.008 | -0.849 | -1.55 | -0.116 | 0.0083 | -0.0372
9 | CTCTTAA | -0.103 | -0.166 | -0.219 | -0.444 | -0.0742 | -0.781 | -0.134 | 0.052 | -0.184 | -0.127
10 | CATATGA | -0.0118 | -0.0121 | -0.139 | -0.0933 | -0.0333 | -0.924 | 0.0665 | 0.0768 | 0.0448 | -0.0517
11 | GCCGCGT | 0.0396 | 0.0438 | -0.49 | -0.069 | 0.134 | -0.444 | 0.287 | 0.087 | 0.0435 | 0.0446
12 | TATGATG | 0.0477 | -0.0375 | -0.189 | -0.295 | -0.0963 | -0.532 | 0.00925 | -0.0493 | -0.106 | -0.0829
13 | CGGCTGG | -0.00288 | 0.124 | 0.0975 | 0.645 | 0.00783 | 1.32 | 0.182 | 0.147 | -0.0533 | 0.1
14 | AACTCTA | -0.303 | -0.223 | -0.395 | -2.8 | -0.0602 | -0.731 | -2.51 | -0.216 | -0.0594 | -0.229
15 | GACCCCT | 0.0439 | 0.000842 | 0.0359 | -1.91 | -0.0666 | 0.767 | -0.261 | -0.0302 | 0.0144 | 0.0199
16 | GAATCCA | -0.112 | 0.0619 | -0.619 | -1.53 | -0.0584 | 0.452 | -0.626 | -0.0322 | 0.0147 | -0.113
17 | ATCGTGA | 0.00153 | -0.00822 | -0.255 | -0.289 | -0.0014 | -0.951 | 0.0656 | 0.0743 | -0.0174 | -0.0105
18 | AGGCGAC | -0.0885 | -0.0312 | -0.114 | 0.573 | -0.115 | 0.688 | 0.0886 | -0.0232 | -0.125 | -0.0687
19 | GCACCAC | 0.061 | 0.0912 | -0.0256 | 0.106 | 0.0626 | 0.00711 | 0.00491 | 0.0424 | 0.0736 | 0.106
20 | CGCTCAA | -0.0734 | -0.0596 | -0.0145 | -0.105 | -0.0286 | -0.494 | -0.0729 | -0.0727 | -0.0224 | -0.000677
21 | TGTAATC | -0.0165 | 0.0735 | 0.401 | 0.648 | 0.003 | 0.876 | 0.0874 | -0.00999 | 0.055 | 0.145
22 | TGTAAGT | 0.151 | 0.0686 | 0.153 | 0.0269 | -0.1 | -0.521 | -0.103 | 0.0514 | 0.106 | 0.0665
23 | TGTAAAG | 0.0502 | 0.0271 | -0.581 | -0.496 | -0.0101 | -1.11 | 0.209 | 0.0476 | 0.038 | -0.0219
24 | TGCCATC | 0.0381 | 0.0642 | 0.103 | 0.49 | 0.0213 | 0.126 | -0.00506 | -0.0973 | 0.0755 | 0.128
25 | GTCTATA | 0.0752 | 0.0664 | 0.316 | 0.828 | 0.0311 | 1.86 | 0.0576 | 0.0797 | 0.0492 | 0.0893
26 | CGAAAGC | 0.0416 | 0.153 | 0.133 | 0.403 | 0.0609 | -0.257 | 0.19 | 0.0992 | 0.124 | 0.196
27 | GCGCGAG | 0.0514 | 0.113 | 0.154 | 0.553 | -0.0368 | -0.201 | 0.12 | -0.0419 | -0.0593 | 0.0209
28 | TGTTCAC | -0.00844 | 0.124 | 0.38 | 0.837 | -0.0695 | 1.63 | 0.0695 | 0.0153 | 0.0859 | 0.116
29 | AGGTAAC | 0.168 | 0.0498 | 0.145 | -0.104 | 0.111 | 0.425 | 0.185 | 0.159 | 0.154 | 0.101
30 | GGATAAT | -0.0987 | 0.0981 | 0.741 | 1.75 | -0.132 | 2.09 | -1.07 | 0.131 | 0.0811 | 0.136
